{"source": "PubChem BioAssay AID504333", "about": "(National Center for Advancing Translational Sciences (NCATS), 2011)", "note": "The campaign covered roughly 360,000 compounds. About 16,000 (4.4%) were called active. Inconclusive results, whose numbers are uncertain, are shown with a selection of clear calls. The call rests on the fitted dose curve; in most records, active means well fitted inhibition curve with a large enough effect; inconclusive means small, poorly fitted or top-dose-only effect; inactive means no such curve, though single readings can be large or run the other way. Potencies of inconclusive entries are doubtful fits and often do not repeat. Potency means the concentration at half of the fitted maximal effect; tags describe the fitted curve by direction and shape."}
{"target": "Bromodomain adjacent to zinc finger domain protein 2B (Homo sapiens) (UniProt Q9UIF8)", "sequence (Q9UIF8 whole entry, looked up, the tested form may be a part)": "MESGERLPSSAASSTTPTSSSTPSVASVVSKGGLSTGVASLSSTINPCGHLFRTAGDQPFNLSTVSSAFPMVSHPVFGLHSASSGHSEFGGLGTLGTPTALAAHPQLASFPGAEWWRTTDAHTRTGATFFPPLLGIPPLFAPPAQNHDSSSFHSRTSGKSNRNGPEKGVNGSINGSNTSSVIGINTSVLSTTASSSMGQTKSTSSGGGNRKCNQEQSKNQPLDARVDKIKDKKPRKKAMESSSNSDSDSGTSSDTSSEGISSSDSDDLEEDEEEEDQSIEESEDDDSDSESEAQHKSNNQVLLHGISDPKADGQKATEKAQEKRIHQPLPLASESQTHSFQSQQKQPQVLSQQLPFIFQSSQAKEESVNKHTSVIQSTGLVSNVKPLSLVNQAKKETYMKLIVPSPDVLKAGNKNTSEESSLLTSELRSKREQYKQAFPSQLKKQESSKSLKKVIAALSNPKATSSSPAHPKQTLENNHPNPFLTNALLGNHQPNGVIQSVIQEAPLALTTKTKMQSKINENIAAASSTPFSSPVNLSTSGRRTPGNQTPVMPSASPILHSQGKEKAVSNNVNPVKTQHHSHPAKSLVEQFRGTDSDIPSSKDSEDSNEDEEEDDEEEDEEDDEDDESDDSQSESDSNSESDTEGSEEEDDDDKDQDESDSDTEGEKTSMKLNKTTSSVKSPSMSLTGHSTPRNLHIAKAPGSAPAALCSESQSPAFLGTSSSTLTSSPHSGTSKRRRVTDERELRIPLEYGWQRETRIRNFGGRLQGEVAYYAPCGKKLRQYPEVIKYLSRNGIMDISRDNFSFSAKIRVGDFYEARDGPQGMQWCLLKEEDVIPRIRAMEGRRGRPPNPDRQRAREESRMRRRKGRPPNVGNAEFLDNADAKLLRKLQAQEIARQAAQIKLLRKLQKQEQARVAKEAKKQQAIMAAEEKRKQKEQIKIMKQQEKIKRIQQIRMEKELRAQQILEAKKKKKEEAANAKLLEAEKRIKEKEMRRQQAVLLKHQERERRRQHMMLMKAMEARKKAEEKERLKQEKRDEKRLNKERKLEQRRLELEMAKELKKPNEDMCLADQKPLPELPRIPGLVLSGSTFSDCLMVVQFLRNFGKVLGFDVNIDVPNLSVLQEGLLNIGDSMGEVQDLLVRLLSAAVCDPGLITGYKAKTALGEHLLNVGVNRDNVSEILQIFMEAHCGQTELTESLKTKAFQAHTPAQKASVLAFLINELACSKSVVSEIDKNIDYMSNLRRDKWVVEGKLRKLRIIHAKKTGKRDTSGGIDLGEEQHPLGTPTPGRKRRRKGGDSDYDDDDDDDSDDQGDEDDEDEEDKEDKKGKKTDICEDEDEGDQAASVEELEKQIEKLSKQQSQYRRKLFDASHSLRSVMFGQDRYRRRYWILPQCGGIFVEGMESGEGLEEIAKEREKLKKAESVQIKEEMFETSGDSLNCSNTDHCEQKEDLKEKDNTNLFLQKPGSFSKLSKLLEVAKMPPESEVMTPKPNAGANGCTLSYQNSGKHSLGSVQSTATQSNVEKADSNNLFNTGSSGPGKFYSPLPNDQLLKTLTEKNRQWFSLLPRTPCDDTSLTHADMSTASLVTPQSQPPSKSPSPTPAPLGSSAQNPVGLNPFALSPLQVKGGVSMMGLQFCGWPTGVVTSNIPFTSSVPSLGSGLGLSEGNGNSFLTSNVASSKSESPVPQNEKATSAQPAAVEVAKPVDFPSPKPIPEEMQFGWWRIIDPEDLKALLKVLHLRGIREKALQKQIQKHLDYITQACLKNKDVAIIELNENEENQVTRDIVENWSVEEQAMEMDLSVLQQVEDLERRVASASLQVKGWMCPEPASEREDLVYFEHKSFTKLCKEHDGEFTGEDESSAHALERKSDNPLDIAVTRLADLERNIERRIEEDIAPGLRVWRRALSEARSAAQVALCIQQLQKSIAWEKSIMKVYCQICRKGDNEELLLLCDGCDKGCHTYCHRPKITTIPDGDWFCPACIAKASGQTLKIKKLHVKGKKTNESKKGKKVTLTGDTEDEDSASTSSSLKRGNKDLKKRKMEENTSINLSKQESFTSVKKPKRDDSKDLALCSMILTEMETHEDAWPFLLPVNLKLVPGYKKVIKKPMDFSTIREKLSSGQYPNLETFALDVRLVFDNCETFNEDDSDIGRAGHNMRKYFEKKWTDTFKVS", "assay": "qHTS Assay for Inhibitors of BAZ2B; further: nearly all actives have a fitted effect of over 60% in size", "conditions": "AlphaScreen BAZ2B-H3K14Ac peptide displacement; series mostly up to 114 µM", "in_short": "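AlphaScreen luminescence quantifies BAZ2B engagement of H3K14Ac peptide; the protein and biotinylated peptide are both at 50 nM final, buffer PBS pH 7.4 with 0.01% Tween-20, all steps at room temperature.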"}
{"smiles": "COc1ccc(NS(=O)(=O)c2cc(-c3cnc(C4CC4)o3)ccc2C)cc1", "Potency": "inconclusive: 56.2 µM [inhibitor, partial curve]"}
{"smiles": "Cc1cc(C(=O)CN2C(=O)C(=O)N(C)C2=O)c(C)n1-c1cccc(S(=O)(=O)N2CCOCC2)c1", "Potency": "inconclusive: 79.4 µM [inhibitor, single point]"}
{"smiles": "CC(=O)c1c(C)[nH]c(C(=O)Nc2nc(C)cs2)c1C", "Potency": "active: 50.1 µM"}
{"smiles": "COC(=O)C1=C(C)NC2=C(C(=O)c3ccccc32)C1c1ccc(-c2ccc(C(=O)O)cc2)o1", "note": "(stereo not given)", "Potency": "inconclusive: 28.2 µM [inhibitor, partial curve]"}
{"smiles": "Cc1ccccc1Nc1nc(N)nc(COC(=O)c2cccn2C)n1", "Potency": "inconclusive: 56.2 µM [inhibitor, partial curve]"}
{"smiles": "O=C(c1cccc(S(=O)(=O)N2CCc3ccccc32)c1)N1CCCC(C(F)(F)F)C1", "note": "(stereo not given)", "Potency": "inactive"}
{"smiles": "Cc1ccc(NC(=O)c2nc[nH]c2C(=O)N[C@@H](CCCCNC(=O)OC(C)(C)C)C(=O)OC(C)(C)C)cc1", "Potency": "inactive"}
{"smiles": "CCOC(=O)Cc1csc(N/N=C/c2cccc([N+](=O)[O-])c2)n1", "Potency": "inactive"}
{"smiles": "C/C(=N\\NS(=O)(=O)c1ccc(C)cc1)c1ccc(C)o1", "Potency": "inconclusive: 79.4 µM [inhibitor, single point]"}
{"smiles": "COc1cc([N+](=O)[O-])ccc1N=Nc1c(N)[nH]n(-c2ccccc2)c1=O", "Potency": "inconclusive: 39.8 µM [inhibitor, partial curve]"}
{"smiles": "Cc1c(Cc2ccccc2)sc(NC(=O)C(C)(C)C)c1C(N)=O", "Potency": "inconclusive: 50.1 µM [inhibitor, partial curve]"}
{"smiles": "CCCC/C(O)=C1\\C(=O)CC(C)(C)CC1=Nc1ccc(N)cc1", "Potency": "inconclusive: 79.4 µM [inhibitor, single point]"}
{"smiles": "COc1ccc(NC(=O)c2ccc(-n3cnnn3)cc2)c([N+](=O)[O-])c1", "Potency": "inactive"}
{"smiles": "S=c1[nH]nc(-c2cc(-c3ccccc3)n[nH]2)n1/N=C/c1cccc(Cl)c1", "Potency": "active: 50.1 µM"}
{"smiles": "O=C(Nc1ccccc1C(=O)O)c1ncn[nH]1", "Potency": "inconclusive: 89.1 µM [inhibitor, single point]"}
{"smiles": "CC(=O)c1c(C)c(C)c2n1CCn1c(C)ccc1-2", "Potency": "inconclusive: 56.2 µM [inhibitor, partial curve]"}
{"smiles": "COc1cc(/C(C)=N/NC(=S)NC(C)C)cc(OC)c1OC", "Potency": "inactive"}
{"smiles": "Cc1ccc(S(=O)(=O)N2CCCc3cc(NC(=O)c4ccc(C(F)(F)F)cc4)ccc32)cc1", "Potency": "inactive"}
{"smiles": "CC(C)=CC(=O)OCC(=O)Nc1ncc(Cl)c(C)c1Cl", "Potency": "inconclusive: 79.4 µM [inhibitor, single point]"}
{"smiles": "O=C(Nc1ccc2c(c1)OCCO2)c1coc2ccccc2c1=O", "Potency": "inactive"}
{"smiles": "CC(C)OC(=O)C(C(=O)C(F)(F)F)c1cc(NS(=O)(=O)c2ccc3ccccc3c2)c2ccccc2c1O", "note": "(stereo not given)", "Potency": "inactive"}
{"smiles": "CCNc1nc(NCC)n2c(SCC(=O)Nc3ccc(NC(C)=O)cc3)nnc2n1", "Potency": "active: 50.1 µM"}
{"smiles": "Cc1cccc(NC(=O)c2ccccc2NC(=O)Cc2ccccc2)c1C", "Potency": "inconclusive: 89.1 µM [inhibitor, single point]"}
{"smiles": "CCOc1ccccc1NS(=O)(=O)c1c(C(=O)OC)sc2cccc(F)c12", "Potency": "inactive"}
{"smiles": "Cc1cc(=O)oc2c3c(cc(OCC(=O)NCCCn4ccnc4)c12)OC(C)(C)CC3", "Potency": "inconclusive: 56.2 µM [inhibitor, partial curve]"}
{"smiles": "COc1cccc(/C=N/N2CCN(Cc3ccccc3)CC2)c1O", "Potency": "inconclusive: 79.4 µM [inhibitor, single point]"}
{"smiles": "Cc1ccc(CN2CCN(/N=C/c3ccc(C)s3)CC2)c(C)c1", "Potency": "active: 35.5 µM"}
{"smiles": "O=C(/C=C/c1ccco1)N(Cc1cccc(Cl)c1)C1CCS(=O)(=O)C1", "note": "(stereo not given)", "Potency": "inconclusive: 79.4 µM [inhibitor, single point]"}
{"smiles": "COc1cc2c(cc1OC)C(c1ccccc1)N(C(=O)c1ccccc1F)CC2", "note": "(stereo not given)", "Potency": "inconclusive: 44.7 µM [inhibitor, partial curve]"}
{"smiles": "O=C(c1[nH]nc2c1CCc1ccccc1-2)N1CCN(Cc2ccc3c(c2)OCO3)CC1", "Potency": "inconclusive: 50.1 µM [inhibitor, partial curve]"}
{"smiles": "CN(C)c1ccc(C=Nc2cnn(C)c2C(N)=O)cc1", "Potency": "inconclusive: 89.1 µM [inhibitor, single point]"}
{"smiles": "COc1cccc(-c2csc(N3CCN(CC(=O)NNC(=O)c4ccco4)CC3)n2)c1", "Potency": "inconclusive: 89.1 µM [inhibitor, single point]"}
{"smiles": "COc1ccc(NC(=O)CCCN2C(=O)C(c3ccccc3)Oc3cccnc32)cc1OC", "note": "(stereo not given)", "Potency": "inconclusive: 79.4 µM [inhibitor, single point]"}
{"smiles": "O=C(O)CCCn1c(O)c(C=C2N=c3ccccc3=N2)sc1=S", "Potency": "inconclusive: 89.1 µM [inhibitor, single point]"}
{"smiles": "COC(=O)c1cc(-c2ccccc2)n(CC(=O)O)c1C", "Potency": "inconclusive: 79.4 µM [inhibitor, single point]"}
{"smiles": "COCCCNC(=O)c1c(N)n(/N=C/c2ccccn2)c2nc3ccccc3nc12", "Potency": "inactive"}
{"smiles": "O=c1cc(-c2ccc(O)c(O)c2)oc2c1ccc1ccccc12", "Potency": "inconclusive: 89.1 µM [inhibitor, single point]"}
{"smiles": "CCc1ccc(OCC2c3cc(OC)c(OC)cc3CCN2C(=O)Cc2ccc(OC)c(OC)c2)cc1", "note": "(stereo not given)", "Potency": "inconclusive: 22.4 µM [inhibitor, full curve]"}
{"smiles": "CCC(C(=O)OCC(=O)N1CCN(c2ccc(OC)cc2)CC1)c1ccccc1", "note": "(stereo not given)", "Potency": "inconclusive: 50.1 µM [inhibitor, partial curve]"}
{"smiles": "COc1ccc(CNC(=O)[C@H](C)NC(=O)C2CCN(S(=O)(=O)c3ccccc3)CC2)cc1", "Potency": "inactive"}
{"smiles": "CCOc1ccc(C(=O)C(CCC(CN(C)C)C(=O)c2ccc(OCC)cc2)CN(C)C)cc1", "note": "(stereo not given)", "Potency": "inconclusive: 44.7 µM [inhibitor, partial curve]"}
{"smiles": "CC(=O)Nc1ccc(-c2nnc3n(CC(C)C)c(=O)c4ccccc4n23)cc1", "Potency": "inactive"}
{"smiles": "CCc1cc2c(cc3c(=O)n(CC(=O)NCCCN(CC)CC)nc(CC)n32)s1", "Potency": "inconclusive: 89.1 µM [inhibitor, single point]"}
{"smiles": "O=[N+]([O-])c1nn(-c2ccc3c(c2)OCCO3)n(O)c1=NC1CCCCCC1", "Potency": "active: 14.1 µM"}
{"smiles": "CCOc1cc(/C=N/NC(=O)CN2CCCCC2)ccc1O", "Potency": "active: 56.2 µM"}
{"smiles": "COc1ccc(N2CC(C(=O)Nc3ncccc3C)CC2=O)cc1", "note": "(stereo not given)", "Potency": "inconclusive: 89.1 µM [inhibitor, single point]"}
{"smiles": "O=C(Nc1cccn(Cc2cccc(F)c2)c1=O)NC1CCCCC1", "Potency": "inconclusive: 50.1 µM [inhibitor, partial curve]"}
{"smiles": "CSc1nc(N)c2c3c(sc2n1)CN(C)CC3", "Potency": "inactive"}
{"smiles": "Cc1ccc(C(=O)N2CCCCCC2)cc1S(=O)(=O)Nc1ccccc1", "Potency": "inactive"}
{"smiles": "Cc1ccccc1CSCCNC(=O)Nc1ccccc1", "Potency": "inconclusive: 89.1 µM [inhibitor, single point]"}
{"smiles": "CCn1c(CN2CCCCC2)nc2cc(NC(=O)COc3ccc([N+](=O)[O-])cc3)ccc21", "Potency": "inconclusive: 89.1 µM [inhibitor, single point]"}
{"smiles": "COc1ccc(NC(=O)C(=O)N/N=C(\\C)CC(=O)Nc2ccccn2)c(OC)c1", "Potency": "inactive"}
{"smiles": "Cc1cc(C(=O)C(C)OC(=O)c2cnccn2)c(C)n1-c1ccccc1", "note": "(stereo not given)", "Potency": "active: 25.1 µM"}
{"smiles": "O=C(NCCc1ccc(Cl)cc1)c1ccc2c(c1)N(Cc1ccc(F)cc1Cl)C(=O)CS2", "Potency": "inactive"}
{"smiles": "O=C(CN1C(=O)/C(=C/c2ccco2)SC1=S)Nc1ccc(C(=O)O)c(O)c1", "Potency": "active: 28.2 µM"}
{"smiles": "Cc1ccc(/C=C2/SC(=S)N(c3ccc(S(=O)(=O)Nc4nccs4)cc3)C2=O)cc1", "Potency": "inconclusive: 10 µM [inhibitor, full curve]"}
{"smiles": "CCOC(=O)C(=O)N(Nc1ccccc1C)c1ccccc1C", "Potency": "inconclusive: 70.8 µM [inhibitor, single point]"}
{"smiles": "Cc1[nH]c(C)c(S(=O)(=O)N2CCN(c3cccc(C(F)(F)F)c3)CC2)c1C(=O)N1CCCCC1", "Potency": "inconclusive: 50.1 µM [inhibitor, partial curve]"}
{"smiles": "CC(=O)N1c2ccccc2NC2=C(C(=O)CCC2)C1c1ccco1", "note": "(stereo not given)", "Potency": "inconclusive: 89.1 µM [inhibitor, single point]"}
{"smiles": "COc1ccccc1-n1c2nc3ccccc3nc2c2c(=O)n(-c3cc(C)cc(C)c3)cnc21", "Potency": "inactive"}
{"smiles": "COc1ccccc1OCCNC1CCCC1", "Potency": "inconclusive: 89.1 µM [inhibitor, single point]"}
{"smiles": "CN(C)CCn1nnnc1SCC1=C(C(=O)O)N2C(=O)[C@@H](NC(=O)Cc3csc(N)n3)[C@H]2SC1", "Potency": "active: 50.1 µM"}
{"smiles": "CCCc1cc(C(=O)N/N=C/c2cccn2C)cs1", "Potency": "active: 44.7 µM"}
{"smiles": "CCN(CC)c1ccc(C=C2C(=O)OC3(CCCCC3)OC2=O)cc1", "Potency": "inconclusive: 50.1 µM [inhibitor, partial curve]"}
{"smiles": "COc1cccc(-c2csc(N3CCN(C(=O)Nc4ccc(F)cc4)CC3)n2)c1", "Potency": "inactive"}
{"smiles": "O=C(CSc1oc(-c2ccco2)nc1S(=O)(=O)c1ccc(Br)cc1)c1ccc(Cl)cc1", "Potency": "inactive"}
{"smiles": "Cc1ccc(C2CC(c3cccs3)=NN2C(=O)c2ccco2)o1", "note": "(stereo not given)", "Potency": "inconclusive: 56.2 µM [inhibitor, partial curve]"}
{"smiles": "Cc1nn2c(=O)cc(COC(=O)c3ccc(S(=O)(=O)N4CCCCC4)cc3)nc2s1", "Potency": "inactive"}
{"smiles": "Cc1cc2cc(CNC(=O)CCC(=O)O)ccc2n1C", "Potency": "inconclusive: 50.1 µM [inhibitor, partial curve]"}
{"smiles": "CCN(CCCNC(=O)c1ccc(Sc2ccc(Cl)cc2)c(NC(C)=O)c1)c1cccc(C)c1", "Potency": "inconclusive: 17.8 µM [inhibitor, full curve]"}
